# Assay results from PubChem BioAssay AID485344 (National Center for Advancing Translational Sciences (NCATS), 2010).
# Screen size: about 340,000 compounds; about 6,900 (2%) were called active. Rule as the data show it: active = inhibition above about 30%; inactive = below that, where a call was filed. This is a selection; strong and weak results do not stand in their true shares. Where no call is shown, the source filed none.
# Molecular target: D(2) dopamine receptor (Homo sapiens) (UniProt P14416)
# Experiment: HTS Assay for Allosteric Antagonists of the Human D2 Dopamine Receptor: Primary Screen for Antagonists; also: 0% is about no effect
# Details: HEK293 TREx D2 cells, calcium flux, dopamine EC80; at 10 µM; stronger effect = higher value
# In short: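 Tetracycline-induced HEK293 TREx cells expressing D2 receptor forced-coupled to calcium signalling, loaded with no-wash calcium dye. Compounds added and calcium flux read 180 s, then dopamine added at EC80 and read a further 180 s.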
# Sequence of UniProt P14416 (P14416 whole entry, looked up): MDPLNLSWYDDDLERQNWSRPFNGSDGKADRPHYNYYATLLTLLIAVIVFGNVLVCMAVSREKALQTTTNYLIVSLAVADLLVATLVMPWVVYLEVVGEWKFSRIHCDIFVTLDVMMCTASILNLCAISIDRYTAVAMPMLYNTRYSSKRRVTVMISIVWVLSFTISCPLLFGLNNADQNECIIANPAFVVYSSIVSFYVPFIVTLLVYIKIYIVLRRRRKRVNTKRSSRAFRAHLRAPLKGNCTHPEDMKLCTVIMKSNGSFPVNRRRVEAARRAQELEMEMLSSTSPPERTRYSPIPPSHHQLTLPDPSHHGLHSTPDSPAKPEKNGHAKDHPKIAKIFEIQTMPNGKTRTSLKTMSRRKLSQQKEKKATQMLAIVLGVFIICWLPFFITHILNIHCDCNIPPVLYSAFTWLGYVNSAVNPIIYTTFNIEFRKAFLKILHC
row,SMILES,inhibition
1,CCOC(=O)C1CCCN(CC(O)COC(c2ccccc2)c2ccccc2)C1 (stereo not drawn),active: 33.4%
2,CC(C)c1ccc(N2C(=O)N(Cc3ccccc3Cl)c3ccccc3S2(=O)=O)cc1,6.31%
3,COc1ccc(OC)c(NC(=O)CNC(c2ccccc2)c2ccccc2)c1,active: 31.3%
4,CC1CCN(CCOc2ccccc2-c2ccccc2)CC1,active: 75%
5,Cn1c(=O)[nH]c(=O)c2c1nc(N1CCOCC1)n2CCSc1nnnn1-c1ccccc1,active: 36.6%
6,O=C(Nc1cc(C(F)(F)F)ccc1Cl)c1cnn(-c2ccccc2)c1-n1cccc1,-12.7%
7,CCOc1ccc(CCNC(=O)c2cnc3sc(N4CCCCC4)nn3c2=O)cc1,-2.64%
8,COC(=O)Cc1c(C)nc2nc(-c3ccc(C)cc3)[nH]n2c1=O,-13.6%
9,CCOc1cccc2sc(NC(=O)CS(=O)(=O)c3ccc(C)cc3)nc12,6.81%
10,CCN(Cc1ccccc1)S(=O)(=O)c1ccc(F)c(C(=O)Nc2cc(C(F)(F)F)ccc2Cl)c1,26.8%
11,COc1ccc(N2C(=O)CSC23C(=O)N(CC(N)=O)c2ccccc23)cc1 (stereo not drawn),2.98%
12,COc1cc(OC)c(NC(=O)N2CCCn3nc(C)cc32)cc1Cl,-1.66%
13,COc1ccc(C(=O)Nc2ccc3c(c2)CCCN3C(=O)c2cccs2)c(OC)c1,-16.6%
14,CCOc1ccc(Nc2nnc(-n3nc(C)cc3C)c3ccccc23)cc1,2.74%
15,Cc1cccc(-n2ccnc2SCC(=O)Nc2cccc3ccccc23)c1C,8.39%
16,COc1ccc(-c2nnc(SCC(=O)NC3CCCCC3)nc2-c2ccc(OC)cc2)cc1,-8.36%
17,O=C(Cn1c(=O)n(Cc2ccc3c(c2)OCO3)c(=O)c2oc3ccccc3c21)Nc1ccccc1F,-16.8%
18,O=C(CSc1nc(O)c(C2CCCCC2)c(=O)[nH]1)N1CCOCC1,active: 42.7%
19,CCN(C(=O)Cn1cnc2onc(-c3ccc(F)cc3)c2c1=O)c1ccc(OC)cc1,-5.93%
20,CCOc1ccc(NC(=O)Cn2c(=O)c(CNc3ccc(CC)cc3)cc3cc4c(cc32)OCO4)cc1,-1.99%
21,Cc1oc2ncn(CC(C)C)c(=O)c2c1C(=O)NC(C)c1ccccc1 (stereo not drawn),-0.77%
22,Cc1cc(C)c2nc(NC(=O)c3ccc(S(=O)(=O)N4CCc5ccccc54)cc3)sc2c1,9.21%
23,CCCS(=O)(=O)N1CC(=O)N(c2ccc(C)cc2)C(C)(C(=O)NC2CCCCCC2)C1 (stereo not drawn),13.5%
24,COc1ccc(CCNC(=O)c2cc3sccc3n2Cc2ccc(Cl)cc2)cc1OC,-18.4%

row,SMILES,inhibition
1,CCOc1ccccc1CN1CCc2nc(Nc3ccc4c(c3)OCCO4)ncc2C1,5.75%
2,O=C(CSc1nc(Nc2ccc(F)cc2)c2ccccc2n1)c1ccc(F)cc1,9.47%
3,Cc1cccc(-n2c(C)nc3cc(C(=O)NCCC4=CCCCC4)ccc32)c1,4.98%
4,O=C(NCc1nc2ccccc2[nH]1)c1c(F)cccc1F,15.2%
5,COc1ccc(NC(=O)CCNS(=O)(=O)c2cccc3nsnc23)cc1Cl,10.2%
6,CCn1c(=O)cc(OCC(=O)N2CCN(c3ccc(OC)cc3)CC2)c2ccccc21,16.6%
7,COc1cccc(OC)c1C(=O)Nc1nc2c(s1)CCc1ccccc1-2,13.4%
8,Cc1ccc(NC(=O)Nc2sc3nc4n(c(=O)c3c2C)CCC(C)CC4)c(Cl)c1 (stereo not drawn),13.4%
9,Cc1cccc(NC(=O)c2ccc3c(c2)CCN3S(=O)(=O)c2ccccc2)c1C,-1.94%
10,O=C(c1cc2ccccc2o1)N1CC=C(c2ccccc2)CC1,active: 46.1%
11,COC(=O)c1ccc(NC(=O)N2CCN(Cc3cc(=O)n4nc(-c5ccc(C)cc5)sc4n3)CC2)cc1,-5.84%
12,COc1ccc(-c2noc(-c3ccc(N4CCN(c5ccccc5)CC4)c([N+](=O)[O-])c3)n2)cc1,17.4%
13,CC(CNC(=O)CN1C(=O)c2cccnc2Oc2ccc(Cl)cc21)c1ccccc1 (stereo not drawn),7.28%
14,COc1cccc(OC)c1C(=O)OCC(=O)NC1CCCCCC1,active: 81.9%
15,COc1ccc2cc3cc(C(=O)N4CCN(c5ccccc5F)CC4)oc3nc2c1,1.18%
16,CCCOc1ccc(C2CC(=O)Nc3c2c(C)nn3-c2nncc(-c3cccc(OC)c3)n2)cc1OC (stereo not drawn),0.404%
17,COc1cccc(C2=CC(c3cc(Br)ccc3F)n3nnnc3N2)c1 (stereo not drawn),-18.3%
18,Cc1cccc(N2C(=O)CSC23C(=O)N(CC(=O)NCc2ccccc2Cl)c2ccccc23)c1 (stereo not drawn),0.92%
19,COc1ccc(CCNC(=O)C(=O)NCC(c2ccco2)S(=O)(=O)c2ccccc2)cc1 (stereo not drawn),-12%
20,Cc1ccc(OCC(O)CN2CCN(c3ccc(C)cc3)CC2)cc1 (stereo not drawn),active: 53.2%
21,O=C(Cn1c(SCCOc2ccc(Cl)cc2)nc2ccccc21)N1CCCCC1,13.1%
22,COc1ccc(-c2nnc3n2N(C(C)=O)C(c2ccc(Cl)c(Cl)c2)=C(C(C)=O)S3)cc1,-4.34%
23,COc1ccc(N2CC(C(=O)NCc3nnnn3-c3ccc(C)c(C)c3)CC2=O)cc1 (stereo not drawn),5.22%
24,Cc1ccccc1C(=O)Nc1c(C)nc(Nc2ccccc2)nc1Nc1ccccc1,9.91%

row,SMILES,inhibition
1,CCOCCCNC(=O)C(c1ccc(OC)cc1)N(Cc1ccc2c(c1)OCO2)C(=O)c1ccccc1O (stereo not drawn),-24.9%
2,CC(=O)N1c2ccc(S(=O)(=O)NCC3CCC(C(=O)Nc4cccc(C)c4C)CC3)cc2CC1C (stereo not drawn),19.1%
3,Cc1ccc(NC(=O)Cn2nc(C)n3cccc3c2=O)c(C)c1,-6.5%
4,Cc1cccc(N2CCN(C(=O)c3cc4c(=O)n(C)c5ccccc5c4s3)CC2C)c1 (stereo not drawn),-7.81%
5,CCCN(CCC)CCNC(=O)c1ccc2c(c1)NC(=O)C(CS(=O)(=O)Cc1cccc(Br)c1)N2 (stereo not drawn),-4%
6,O=C(NC1CCN(Cc2ccc(F)cc2)CC1)c1ccccc1,active: 115%
7,COc1ccccc1N1CCN(S(=O)(=O)CCNC(=O)COc2ccc(C(C)C)cc2)CC1,-7.93%
8,Cc1sc2ncn(CC(=O)N3CCN(c4cccc(Cl)c4)CC3)c(=O)c2c1S(=O)(=O)N1CCN(c2ncccn2)CC1,3.45%
9,COc1ccc(NC(=O)c2ccc3c(SCC(=O)O)c4c(nc3c2)CCC4)c(OC)c1,3.52%
10,N#Cc1ccc(NC(=O)COC(=O)CSc2nnc(-c3ccc(Cl)cc3)o2)cc1,active: 31.3%
11,CCOc1ccccc1N1CC(c2nc3ccccc3n2Cc2c(C)cc(C)cc2C)CC1=O (stereo not drawn),2.97%
12,COc1ccc(-c2nc(SCc3cc(=O)c4cc(C)ccc4[nH]3)n[nH]2)cc1,4.5%
13,COc1ccc(-c2nc(C)c(CCNC(=O)C(=O)Nc3cc(C)cc(C)c3)s2)cc1OC,8.04%
14,COc1cccc(-n2c(=O)c3c(C)c(C)sc3n(CC(=O)NCc3ccccc3)c2=O)c1,1.53%
15,COc1ccc(-c2nsc(NC(=O)C(C)Oc3ccc(Cl)c(C)c3)n2)cc1 (stereo not drawn),12.4%
16,COc1ccccc1NC(=O)C1=C(C)Nc2nnnn2C1c1cc(Br)c(O)c(OC)c1 (stereo not drawn),-6.64%
17,O=S(=O)(c1ccc(OCC(O)CN2CCN(c3ccc(F)cc3)CC2)cc1)N1CCOCC1 (stereo not drawn),active: 66.8%
18,Cc1ccc(C)c(Cn2c(=O)cc(C)c3c(C)nn(-c4cccc(F)c4)c32)c1,-14.5%
19,COc1ccc(NC(=O)c2cnc(Nc3ccc(C)c(Cl)c3)c3ccccc23)cc1OC,10.9%
20,COc1ccc(/C=C/c2nc(C#N)c(NCCc3ccccc3)o2)cc1OC,16.9%
21,COc1ccc(Nc2nc3c(S(=O)(=O)c4ccccc4)nnn3c3ccsc23)cc1OC,10.2%
22,Cc1cccc(C(=O)Nc2c(C(=O)NCc3ccc(Cl)cc3)sc3nc(C)cc(C)c23)c1,-7.85%
23,COc1ccc(OC)c(CCNC(=O)c2cnn(-c3ccccc3Cl)c2C2CCN(C(=O)OC(C)(C)C)CC2)c1,2.9%
24,COc1ccc(CCNC(=O)c2cn(C)c3ccc(S(=O)(=O)N(C)C4CCCCC4)cc3c2=O)cc1OC,-11.5%

row,SMILES,inhibition
1,CC(=O)Nc1ccc(S(=O)(=O)Nc2cc(-c3cn4ccccc4n3)ccc2C)cc1,-11.6%
2,COC(=O)c1cc2occc2n1Cc1nc(-c2cccc(Cl)c2)oc1C,13.1%
3,CSCCC(NC(=O)c1ccccc1)C(=O)NCc1ccc(S(N)(=O)=O)cc1 (stereo not drawn),active: 31.4%
4,CCOc1ccc(NC(=O)CN(c2ccc(OC)c(OC)c2)S(=O)(=O)c2ccc(C)cc2)cc1,active: 55%
5,COc1ccc(NC(=O)Cn2c(=O)n(-c3ccc(C)cc3)c(=O)c3c2cnn3C)cc1,11.9%
6,COc1ccc(C)cc1NC(=O)c1ccc(=O)n(Cc2ccccc2)c1,-27.5%
7,CC(C)CCNC(=O)C1CCN(c2nc3ccc(Cl)cc3[nH]2)CC1,-14%
8,CCOC(=O)c1cc2c(=O)n3ccccc3nc2n(Cc2ccco2)c1=NC(=O)c1c(F)cccc1Cl,-9.22%
9,CCOC(=O)c1c(C)[nH]c(C)c1S(=O)(=O)N(C)CC(=O)Nc1ccc(C)c(N(C)C)c1,8.25%
10,O=C(Cn1c(=O)c2cccn2c2ccc(F)cc21)NCCCN1CCN(c2ccccc2F)CC1,active: 81.8%
11,Cc1ccc(Cn2c(SCC(=O)C(C)(C)C)nc3ccsc3c2=O)cc1,-0.15%
12,CCN(C(=O)N(CC)c1ccccc1)c1ccccc1,active: 42.5%
13,CC1=Nc2cc(C(=O)NCCc3ccccc3)ccc2Sc2c(C)ccc(C)c21,2%
14,CC(C)(C)c1ccc(C(=O)NC2(C(F)(F)F)C(=O)Nc3c2c(=O)[nH]c(=O)n3-c2ccccc2)cc1 (stereo not drawn),3.58%
15,Cc1cccn2c(=O)c3cc(C(=O)NCc4cccnc4)c(=N)n(CCCO)c3nc12,-5%
16,COC(=O)c1c(C)oc2ccc(N(C(=O)c3ccncc3)S(=O)(=O)c3c(C)cc(C)cc3C)cc12,14.7%
17,CN1CCc2nc3sc(C(=O)Nc4ccccc4OC(F)(F)F)c(N)c3cc2C1,-13.3%
18,O=C(NCc1ccccc1)c1nc(S(=O)(=O)Cc2ccccc2)ncc1Cl,12.6%
19,CCCCNCCCOc1cccc(Cl)c1Cl,active: 87.3%
20,Cc1sc2ncn(CC(=O)N3CCN(c4ccc(Cl)cc4)CC3)c(=O)c2c1S(=O)(=O)N1CCN(c2ncccn2)CC1,5.85%
21,CCc1noc(C)c1C(=O)NNC(=O)c1nn(C)c(=O)c2ccccc12,active: 56.7%
